Assay results taken from the supplement of paper PMC11741623.
The list shows a part of the results. Interaction screen of human proteins with wild-type SARS-CoV-2 proteins by split-DHFR complementation in yeast, 1 µg/mL methotrexate. Value = fitness of the pair (three or more lineages) minus that of the viral protein without a human partner, on a scale set by negative (0) and fused positive (1) controls, mean of up to three cultures; higher = more likely to interact. Active = false discovery rate below 0.05 (one-sided t-test) in at least one culture. Nearly all pairs are not hits, and differences among them are mostly noise (correlation between cultures about 0.3); most hits were seen in one culture only. Human sequences are the Swiss-Prot entries looked up by gene name; the clone may be another isoform. NSP2 values were corrected by the authors for a growth advantage. Listed are human proteins with a hit and a random twelfth of the others.

B1: DEFB1, P60022 (protein)
chain: MRTSYLLLFTLCLLLSEMASGGNFLTGLGHRSDHYNCVSSGGQCLYSACPIFTKIQGTCYRGKAKCCK
B2: HRASLS5, Q96KN8 (protein)
chain: MGLSPGAEGEYALRLPRIPPPLPKPASRTASTGPKDQPPALRRSAVPHSGLNSISPLELEESVGFAALVQLPAKQPPPGTLEQGRSIQQGEKAVVSLETTPSQKADWSSIPKPENEGKLIKQAAEGKPRPRPGDLIEIFRIGYEHWAIYVEDDCVVHLAPPSEEFEVGSITSIFSNRAVVKYSRLEDVLHGCSWKVNNKLDGTYLPLPVDKIIQRTKKMVNKIVQYSLIEGNCEHFVNGLRYGVPRSQQVEHALMEGAKAAGAVISAVVDSIKPKPITA
B3: ZNRF1, Q8ND25 (protein)
chain: MGGKQSTAARSRGPFPGVSTDDSAVPPPGGAPHFGHYRTGGGAMGLRSRSVSSVAGMGMDPSTAGGVPFGLYTPASRGTGDSERAPGGGGSASDSTYAHGNGYQETGGGHHRDGMLYLGSRASLADALPLHIAPRWFSSHSGFKCPICSKSVASDEMEMHFIMCLSKPRLSYNDDVLTKDAGECVICLEELLQGDTIARLPCLCIYHKSCIDSWFEVNRSCPEHPAD
B4: XKR3, Q5GH77 (protein)
chain: METVFEEMDEESTGGVSSSKEEIVLGQRLHLSFPFSIIFSTVLYCGEVAFGLYMFEIYRKANDTFWMSFTISFIIVGAILDQIILMFFNKDLRRNKAALLFWHILLLGPIVRCLHTIRNYHKWLKNLKQEKEETQVSITKRNTMLEREIAFSIRDNFMQQKAFKYMSVIQAFLGSVPQLILQMYISLTIREWPLNRALLMTFSLLSVTYGAIRCNILAIQISNDDTTIKLPPIEFFCVVMWRFLEVISRVVTLAFFIASLKLKSLPVLLIIYFVSLLAPWLEFWKSGAHLPGNKENNSNMVGTVLMLFLITLLYAAINFSCWSAVKLQLSDDKIIDGRQRWGHRILHYSFQFLENVIMILVFRFFGGKTLLNCCDSLIAVQLIISYLLATGFMLLFYQYLYPWQSGKVLPGRTENQPEAPYYYVNIEKTEKNKNKQLRNYCHSCNRVGYFSIRKSMTCS

What follows are binders tested against SARS-CoV-2 E (assay: yeast fitness gain over the viral ORF with no human partner (scaled fitness); higher = more likely to interact).
Experimental: (§1)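 Split mouse DHFR complementation in pooled diploid yeast: human ORFeome clones carry one fragment and viral ORFs the other; barcoded lineages compete in 1 µg/mL methotrexate and fitness is read by barcode sequencing in up to three cultures.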

Row | Binder | yeast fitness gain
1 | B1 | inactive: -0.0117
2 | B2 | inactive: -0.0476
3 | B3 | inactive: 0.0269
4 | B4 | inactive: 0.148

These binders were tested against SARS-CoV-2 M in the same assay as above.
Experimental: as §1

Row | Binder | yeast fitness gain
5 | B1 | inactive: 0.0137
6 | B2 | inactive: -0.0632
7 | B3 | inactive: 0.024
8 | B4 | inactive: 0.0424

Each binder was assayed against SARS-CoV-2 N in the same assay as above.
Experimental: as §1

Row | Binder | yeast fitness gain
9 | B1 | inactive: 0.0234
10 | B2 | inactive: 0.0205
11 | B3 | inactive: -0.0697
12 | B4 | inactive: 0.0113

These binders were tested against SARS-CoV-2 NSP1 in the same assay as above.
Experimental: as §1

Row | Binder | yeast fitness gain
13 | B1 | inactive: -0.00714
14 | B2 | inactive: 0.0357
15 | B3 | inactive: -0.115
16 | B4 | inactive: 0.0633

What follows are binders tested against SARS-CoV-2 NSP10 in the same assay as above.
Experimental: as §1

Row | Binder | yeast fitness gain
17 | B1 | inactive: 0.0435
18 | B2 | inactive: 0.0123
19 | B3 | inactive: 0.0347
20 | B4 | inactive: 0.00322

These binders were tested against SARS-CoV-2 NSP12 in the same assay as above.
Experimental: as §1

Row | Binder | yeast fitness gain
21 | B1 | inactive: 0.0453
22 | B2 | inactive: -0.0576
23 | B3 | inactive: 0.0415
24 | B4 | inactive: 0.04

The binders below were run against SARS-CoV-2 NSP13 in the same assay as above.
Experimental: as §1

Row | Binder | yeast fitness gain
25 | B1 | inactive: 0.0302
26 | B2 | inactive: -0.0286
27 | B3 | inactive: 0.0104
28 | B4 | inactive: 0.00974

Each binder was assayed against SARS-CoV-2 NSP14 in the same assay as above.
Experimental: as §1

Row | Binder | yeast fitness gain
29 | B1 | inactive: 0.148
30 | B2 | inactive: 0.0759
31 | B3 | inactive: -0.28
32 | B4 | inactive: 0.144

These binders were tested against SARS-CoV-2 NSP15 in the same assay as above.
Experimental: as §1

Row | Binder | yeast fitness gain
33 | B1 | inactive: 0.0906
34 | B3 | inactive: -0.0718
35 | B4 | inactive: -0.0342

These binders were tested against SARS-CoV-2 NSP16 in the same assay as above.
Experimental: as §1

Row | Binder | yeast fitness gain
36 | B1 | inactive: -0.0277
37 | B2 | inactive: -0.0215
38 | B3 | inactive: 0.0855
39 | B4 | inactive: 0.00736

Each binder was assayed against SARS-CoV-2 NSP2 in the same assay as above.
Experimental: as §1

Row | Binder | yeast fitness gain
40 | B1 | inactive: -0.0904
41 | B2 | inactive: -0.203
42 | B3 | inactive: -0.0754
43 | B4 | inactive: -0.0683

These binders were tested against SARS-CoV-2 NSP4 in the same assay as above.
Experimental: as §1

Row | Binder | yeast fitness gain
44 | B1 | inactive: 0.0922
45 | B2 | inactive: 0.0425
46 | B3 | inactive: -0.305
47 | B4 | inactive: 0.0958

These binders were tested against SARS-CoV-2 NSP5 in the same assay as above.
Experimental: as §1

Row | Binder | yeast fitness gain
48 | B1 | inactive: 0.0446
49 | B2 | inactive: 0.027
50 | B3 | inactive: 0.0594
51 | B4 | inactive: -0.027

The binders below were run against SARS-CoV-2 NSP6 in the same assay as above.
Experimental: as §1

Row | Binder | yeast fitness gain
52 | B1 | inactive: -0.0402
53 | B2 | inactive: -0.0344
54 | B3 | inactive: 0.0107
55 | B4 | inactive: 0.00696

These binders were tested against SARS-CoV-2 NSP7 in the same assay as above.
Experimental: as §1

Row | Binder | yeast fitness gain
56 | B1 | inactive: 0.000926
57 | B2 | inactive: -0.0377
58 | B3 | inactive: 0.0127
59 | B4 | inactive: 0.0528

These binders were tested against SARS-CoV-2 NSP8 in the same assay as above.
Experimental: as §1

Row | Binder | yeast fitness gain
60 | B1 | inactive: 0.0261
61 | B2 | inactive: -0.0046
62 | B3 | inactive: 0.0584
63 | B4 | inactive: 0.0227

What follows are binders tested against SARS-CoV-2 NSP9 in the same assay as above.
Experimental: as §1

Row | Binder | yeast fitness gain
64 | B1 | inactive: 0.0721
65 | B2 | inactive: 0.0898
66 | B3 | inactive: -0.013
67 | B4 | inactive: -0.0112

These binders were tested against SARS-CoV-2 ORF10 in the same assay as above.
Experimental: as §1

Row | Binder | yeast fitness gain
68 | B1 | inactive: 0.0023
69 | B2 | inactive: 0.0443
70 | B3 | inactive: -0.0743
71 | B4 | inactive: 0.00692

Each binder was assayed against SARS-CoV-2 ORF3A in the same assay as above.
Experimental: as §1

Row | Binder | yeast fitness gain
72 | B1 | inactive: 0.058
73 | B2 | inactive: -0.0501
74 | B3 | inactive: 0.0412
75 | B4 | inactive: -0.0425

These binders were tested against SARS-CoV-2 ORF3B in the same assay as above.
Experimental: as §1

Row | Binder | yeast fitness gain
76 | B1 | inactive: 0.0533
77 | B2 | inactive: 0.0509
78 | B3 | inactive: 0.00132
79 | B4 | inactive: 0.00918

Each binder was assayed against SARS-CoV-2 ORF6 in the same assay as above.
Experimental: as §1

Row | Binder | yeast fitness gain
80 | B1 | inactive: 0.0431
81 | B2 | inactive: 0.0332
82 | B3 | inactive: 0.00255
83 | B4 | inactive: 0.0243

Each binder was assayed against SARS-CoV-2 ORF7A in the same assay as above.
Experimental: as §1

Row | Binder | yeast fitness gain
84 | B1 | inactive: 0.00227
85 | B2 | inactive: -0.171
86 | B3 | inactive: 0.0312
87 | B4 | inactive: 0.0473

Each binder was assayed against SARS-CoV-2 ORF7B in the same assay as above.
Experimental: as §1

Row | Binder | yeast fitness gain
88 | B1 | inactive: 0.0173
89 | B2 | inactive: 0.0286
90 | B3 | inactive: -0.00688
91 | B4 | inactive: -0.0154

What follows are binders tested against SARS-CoV-2 ORF8 in the same assay as above.
Experimental: as §1

Row | Binder | yeast fitness gain
92 | B1 | inactive: 0.0111
93 | B2 | inactive: 0.0632
94 | B3 | inactive: -0.0377
95 | B4 | inactive: 0.0382

The binders below were run against SARS-CoV-2 ORF9B in the same assay as above.
Experimental: as §1

Row | Binder | yeast fitness gain
96 | B1 | inactive: 0.00947
97 | B2 | inactive: -0.0358
98 | B3 | inactive: 0.0166
99 | B4 | inactive: 0.0155

These binders were tested against SARS-CoV-2 ORF9Bwu (the 73-codon ORF) in the same assay as above.
Experimental: as §1

Row | Binder | yeast fitness gain
100 | B1 | inactive: 0.0407
101 | B2 | inactive: 0.0524
102 | B3 | inactive: -0.0318
103 | B4 | inactive: 0.0318

These binders were tested against SARS-CoV-2 S in the same assay as above.
Experimental: as §1

Row | Binder | yeast fitness gain
104 | B1 | inactive: 0.0739
105 | B2 | inactive: 0.0376
106 | B3 | inactive: 0.0381
107 | B4 | inactive: 0.0191
